From the supplement of paper PMC12217912
The other results are listed elsewhere or left out. Sequences were assembled here from the parent chain. Values near 0.05 are background.

B1: TEV protease; numbered along this chain (parent)
chain: MGESLFKGPRDYNPISSSICHLTNESDGHTTSLYGIGFGPFIITNKHLFRRNNGTLVVQSLHGVFKVKDTTTLQQHLVDGRDMIIIRMPKDFPPFPQKLKFREPQREERICLVTTNFQTKSMSSMVSDTSCTFPSGDGIFWKHWIQTKDGQCGSPLVSTRDGFIVGIHSASNFTNTNNYFTSVPKNFMELLTNQEAQQWVSGWRLNADSVLWGGHKVFMVKPEEPFQPVKEATQL

Variants of: B1
Assay: raw area under fraction-flipped curve 0-4 h after induction (AUC4h, not background-subtracted), DNA-recorder readout of cleavage of the substrate (dimensionless); higher = more cleavage of the substrate by the protease variant
Conditions: temperature: 34 °C; time window: 0-4 h after rhamnose induction
Protocol: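 In vivo DNA recorder in E. coli TOP10(DE3) ΔrhaA at 34 °C. Each TEVp single-site mutant (parent TEVp 0) is paired with a single-site variant of the 7-mer TEVs (canonical ENLYFQ|S). The substrate sits between flexible linkers in a Bxb1-sfGFP-TEVs-SsrA fusion, so cleavage stabilises Bxb1 and speeds flipping of a recombination array, read by NGS. The value is the raw area under the fraction-flipped curve over 0-4 h after rhamnose induction (AUC4h), with ≥20 reads per time point. It is not background-subtracted; inactive controls average about 0.047.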
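Also: Bxb1 expression induced with 0.2% (w/v) L-rhamnose at OD600 near 0.5, cultures sampled hourly, flipped fraction per protease–substrate barcode pair counted by paired-end Illumina sequencing.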

Variant | area with substrate ENLYFQC | area with substrate ENLYFQF | area with substrate ENLYFQG | area with substrate ENLYFQI | area with substrate ENLYFQL | area with substrate ENLYFQM | area with substrate ENLYFQP | area with substrate ENLYFQR | area with substrate ENLYFQS | area with substrate ENLYFQT | area with substrate ENLYFQV | area with substrate ENLYFQW | area with substrate ENLYFQD | area with substrate ENLYFQH | area with substrate ENLYFQK | area with substrate ENLYFQN | area with substrate ENLYFQY | area with substrate ENLYFQQ | area with substrate ENLYFQE
D91C | 0.164 | 0.0565 | 0.108 | 0.0636 | 0.0411 | 0.0536 | 0.0595 | 0.0648 | 0.0998 | 0.0664 | 0.0652 | 0.0616 |  |  |  |  |  |  | 
P94E | 0.119 |  |  | 0.0629 | 0.0612 | 0.102 |  | 0.0593 | 0.102 | 0.0663 | 0.0813 |  | 0.127 | 0.0631 | 0.0717 | 0.0854 | 0.081 |  | 
K100W | 0.0924 | 0.0892 | 0.0847 |  |  |  | 0.0561 | 0.0605 | 0.0982 | 0.0662 | 0.0686 | 0.0814 | 0.0521 | 0.0748 |  |  | 0.0602 | 0.0713 | 
E103K | 0.0929 | 0.0681 |  |  |  | 0.0823 | 0.0688 | 0.0507 | 0.0885 | 0.0609 |  | 0.0604 |  | 0.109 |  | 0.0684 | 0.0723 |  | 
E103Y | 0.0898 |  | 0.0958 |  |  |  |  |  | 0.0931 | 0.0654 | 0.0545 |  |  | 0.0743 |  |  |  | 0.0521 | 
P104Y | 0.0533 |  |  | 0.0509 | 0.0526 | 0.0557 | 0.0545 |  | 0.0523 | 0.0558 | 0.0535 | 0.0479 | 0.0524 | 0.0661 | 0.0527 | 0.058 | 0.0535 |  | 
Q105K | 0.098 | 0.095 | 0.115 | 0.0638 | 0.0634 | 0.0824 | 0.0629 | 0.0527 | 0.111 | 0.0562 | 0.0742 | 0.0723 | 0.0942 |  | 0.0683 | 0.0784 | 0.0747 | 0.0763 | 0.0781
Q105N | 0.0994 | 0.0825 | 0.136 | 0.0518 | 0.0629 | 0.105 | 0.0555 | 0.0613 | 0.114 | 0.067 | 0.0494 | 0.0624 | 0.0804 | 0.0864 |  | 0.0857 | 0.0769 |  | 
R109P | 0.0885 | 0.0949 |  |  | 0.0554 | 0.072 | 0.0671 | 0.0529 | 0.0959 | 0.0759 | 0.0592 |  |  | 0.0956 | 0.0628 | 0.076 | 0.0789 |  | 
I110H | 0.0614 |  | 0.059 | 0.0707 | 0.0704 | 0.0367 | 0.0449 | 0.0514 | 0.0584 | 0.0619 |  | 0.0475 | 0.0749 | 0.0433 | 0.0536 | 0.0579 | 0.0624 |  | 
V113C | 0.12 | 0.0681 |  | 0.0579 | 0.0755 |  | 0.0718 | 0.0612 | 0.106 | 0.0674 |  | 0.0559 | 0.0723 | 0.0713 | 0.0758 | 0.0797 | 0.0872 |  | 
Q118G | 0.133 | 0.0677 | 0.0976 | 0.0667 |  | 0.112 |  | 0.0545 | 0.109 | 0.0771 | 0.0689 |  | 0.0905 | 0.0815 | 0.0566 | 0.0821 | 0.0807 |  | 
S121E | 0.119 | 0.0924 |  | 0.0632 |  | 0.0624 |  | 0.0674 | 0.101 |  |  |  | 0.0445 | 0.0042 |  |  |  |  | 
